Reference: the RNAGym collection of RNA variant scans (doi:10.1093/nar/gkz1192)
Read counts are not given, so values of variants with three or more changes are uncertain.

B1: CPEB3 Ribozyme (parent)
chain: UAACAGGGGGCCACAGCAGAAGCGUUCACGUCGCAGCCCCUGUCAGAUUCUGGUGAAUCUGCGAAUUCUGCUGUAUAUCUC

Variants of: B1
Assay: self-cleavage, relative activity (ratio to wild type); higher = more cleavage; in vitro, sequencing
Summary of the method: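 For each CPEB3 ribozyme variant, relative activity is its cleaved/total read fraction divided by the unmutated ribozyme's. Barcoded error-prone PCR libraries were transcribed by T7 RNA polymerase (5 hours, 37°C) and held in DNase I for 15 min before an EDTA stop, with cleavage occurring throughout. Template-switching reverse transcription and Illumina sequencing were used to read the RNAs. A 5-read minimum applied, and results are the mean of three batches.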

Variant	self-cleavage
U1C G42A U54C	0.5
A2G A5G C29A G52A U54C U60C	0.11
U1C G36U U72A	0.05
U1C U26C U43A A47U U54A U74C	0.21
U1C G46U U58A A64U U72C U80C	0.07
U1G U41A G53A U60C	0.18
U1C U43A U58C	0.38
A2G A3G U26C C62G U80A	0.38
U1C U49C U60A	0.12
U1G A13U U25C U26C U66C U72C	0.4
A2G A5G A13G A15G A18G U74A	0.7
A2C U25G U26C A45U	0.52
A2G A3G U72C	1.04
U1C U25C U51A U54A	0.07
A2C C32A C38G	0.06
U1C U25C A35G	0.57
A2C C11U U76C	0.34
A2G A5G C14U U26C U49C A77G	0.08
U1C U48C U74A	0.85
U1G C12A A15G A21G U43A G63U U80C	0.99
U1C U54C U72C	0.84
U1C G24A A45U U49C A64G	0.31
U1G A21G G30A U43G	0.05
U1C U25C G46U	0.3

Variant	self-cleavage
U1C U74A A75G	1.03
A2C A28G U41A U48G	0.32
U1C U25A U26A U41C U78C	0.09
A2G A3G G30A A64G	0.13
A2G A5G C44A U67C	0.16
U1C U41C U60C	0.37
U1C U25C C68A	0.23
A2G A3G U25C C40G U41A	0.76
A2G A5G G33A A64U A65G U74C	0.11
A2G A5G C17U U43C	0.26
U1G A45C U48C U49C U72C C81A	0.61
U1C U25C U67C U69A	0.06
A2C A3U C23G U31C U43C A56U U58C	0.09
U1G U25C A35G U49C	0.12
A2G A5G A57G	0.47
A2G A5G A13C A57G	0.3
A2C G8A U43C G63A U72C G73A A75G	0.04
A2C A15G U25C U60C	0.45
A2G A5G U49A A56G U69A	0.07
A2G A3U A21G C23U C38G G42A U54A	0.05
U1G A28G U43C A56U	0.35
A2C U54C A64G U67C C79A U80C	0.11
A2G A3G A5G A45U U58C U78C	0.26
U1C U31C U67C	0.39

Variant	self-cleavage
U1C U31C U54C A64U	0.18
U1G U25C U26C	0.39
A2G A3G U25C G53C U67C U69A	0.06
A2C U25C A28U C62U	0.2
A2C A15U U41C G52A A65G A77C	0.2
A2C C23A A64U U67A	0.19
A2G A3G U54A	0.81
A2C G7U A64U	0.07
U1G G9U A21G	0.31
U1C G24A A28G A57U	0.06
U1C U43C A45G G73A A75G	0.42
U1C U54C U74A U80C	1.21
A2C C27G A35G C37U U49C A65G	0.05
U1G A21G C62U U72C	0.09
U1G G6A A13G C17U U80A	0.07
U1C U49C A57G U58C	0.36
A2C U51A U66C	0.54
A2C U25C C59U A65C	0.27
A2G A5G G16A U41A U66C U80C	0.24
A2G A5G C11U U66C U80A	0.39
U1C U31C G70C	0.13
U1C U31C A35G C40A U60C U66C U72C	0.06
U1G A28U U51G U76C U80C	0.91
A2C A21G A28G A35U A45G A56G G73A	0.47

Variant	self-cleavage
U1C U69A U72C	0.35
U1C U60A U72A	0.18
A2G A5G A15G	0.45
A2G A5G G52U U54A	0.83
A2C A20G A28G U58C	0.09
A2C U67A U74C	0.94
U1C U26C U31A U67C G70A	0.13
A2C A5G C27U	0.13
A2G A3G A15G U31A U51A U74G	1.07
U1C U41A U43C A56G A57G G61U A75G	0.04
A2C A28G U48G U67A A77U	0.06
U1G G8A A15G G19C U66C	0.05
U1C U31G U41C G73C	0.91
U1C U41C A56G U60C	0.29
A2C A35U A45G U54C	0.26
A2G A3U G7C A20U U60C U76C U78C	0.05
A2C C17U C37U U43C A47G C62U A65G	0.07
A2G A5G C39A A56G	0.15
U1G A5G A15U C38A A65G U78C	0.22
U1C U41C U43A U69C	0.21
A2C C44U U58A U60C	0.04
A2G A3C U31C G33A A47U	0.12
U1G C27G U60A	0.27
U1C U51A U54C	1.14

Variant	self-cleavage
U1C U26A A45G	0.56
A2C A35G C44U U66C U78G	0.25
U1C U51C U69G	0.61
U1C U51C U69C	0.65
U1G A20G A28G G33A U54C	0.06
U1C G53U U72C	1.21
U1G A5U G30U A35G G42U	0.09
A2C U26C A57G	0.38
A2G A5G A18G U60A	0.47
U1C U25A G33U U51A G63A U72G	0.04
U1C U26C U41C A56G	0.23
A2G A5C G7A U26C U49C	0.09
U1C U43C U67C U72A A75G	0.11
U1G G30A U31A	0.07
A2C C11A U26A U51C U80C	0.29
U1G A21G U26C	0.48
A2G A3U G7A A28G A35G A64G	0.08
U1C G30A U76C	0.26
A2G A5G A18G G19C A28U G52A	0.09
U1C G52U U67A U72C U74C U76A	0.4
U1C U51A U58C U69C	0.25
U1G A3U C40U U43G U66C	0.11
A2G A3G C11G A18G A21G C38G A56G	0.5
U1C U51A U54C A57U U66C U74C	0.24

Variant	self-cleavage
A2G A3G A13U U25A C39A U72C	0.09
U1C U25C A35G U43C A75G	0.08
A2G A3G U26C A35U A64U U67C	0.11
U1G A28G U48C	0.26
U1C U41C U58C U69C	0.28
A2C A5U A65G U72A U76C U80A	0.41
A2C A15U A18G U78C	0.11
A2G A5G A18G U66C U74C	0.61
U1C U26C A35G	1.08
A2C A21G G22U U58C C71U	0.11
U1C U26C U67A	0.06
A2G A3U G7A C38A A45U	0.34
U1C U26C U54C A77G	0.5
U1G A5U A20G A47G U67C U72C	1.15
A2C A3G A20G G24A A47G C62U	0.09
A2G A3G C11U A13G C29G G33A	0.45
U1C U31C A64G	0.35
U1G A28G A47G U69A C71U	0.12
A2G A5G C17G U58C A77G	0.11
U1C U25C U26A U54C U69A	0.04
U1G A18G A20U A45G U51C G63A U74A	0.59
A2G A5G G16A C38A	0.12
U1C U41C U54C A64U U69C	0.3
A2C A15G C23G G63A	0.1

Variant	self-cleavage
A2G A5G U67C	0.19
A2G A3G A5G A21G G53A A65G	0.08
A2G A5G U26C U69A	0.5
U1C U43C A56G	0.43
U1C U58C A75G U80C	0.15
A2G A5G G16A U41A U80C	0.48
A2C U26A U49C U51A	0.2
U1C U26C A47U U80C	0.39
U1G U72A U76A U78C	0.52
A2C A20G A28G G36U U58A	0.39
A2G A3G G10C U69C	0.22
U1C U54C U67C U72A	0.18
A2G A3G A45C U80C	0.25
U1C U31A A35G U43C	0.82
U1G U69C U78A	0.33
A2G A3U G7A C11U C38A U60A	0.04
U1C U67C U72A	0.11
A2G A3U A5U A28U U51A A64U	0.39
U1G U26A C44G U60C U80C	0.46
A2G A5G C11G A35U	0.17
U1G U26A A64U A65G	0.12
U1C G24C U60C	0.17
U1G U25C C40A U69G U72C A75G	0.06
